Source: PubChem BioAssay AID1460 (National Center for Advancing Translational Sciences (NCATS), 2008)
Screen size: about 270,000 compounds; about 5,800 (2.1%) were called active. This list was built around the results that the source calls inconclusive (neither active nor inactive); the mix of calls is not that of the screen. The call rests on the fitted dose curve; in most records, active means well fitted inhibition curve with a large enough effect; inconclusive means small, poorly fitted or top-dose-only effect; inactive means flat fitted curve, though single readings scatter. Where the call is inconclusive, the potency comes from a doubtful curve fit.

Each compound was assayed against Microtubule-associated protein tau (Homo sapiens) (UniProt P10636) (assay: qHTS for Inhibitors of Tau Fibril Formation, Thioflavin T Binding). Settings: recombinant tau K18 P301L (four-repeat tau fragment), heparin-induced fibrillization, ThT fluorescence; series mostly up to 57.4 µM; activity, negative = inhibition: at the top concentration.
Method in brief: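 Heparin-induced (20 uM) aggregation of recombinant human K18 P301L tau, 15 uM unlabeled with 0.24 uM labeled, pH 7 acetate buffer, 6 hr at 37 C with compound. Fibrils quantified by 30 uM ThT fluorescence after 1 hr ambient incubation.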
Further: nearly all actives have a fitted effect of over 55% in size.
On the % scale 0 is the no-effect control and ±100 the full control effect; potency means the concentration at half of the fitted maximal effect; tags describe the fitted curve by direction and shape.

Sequence of UniProt P10636 (P10636 whole entry, looked up, the tested form may be a part): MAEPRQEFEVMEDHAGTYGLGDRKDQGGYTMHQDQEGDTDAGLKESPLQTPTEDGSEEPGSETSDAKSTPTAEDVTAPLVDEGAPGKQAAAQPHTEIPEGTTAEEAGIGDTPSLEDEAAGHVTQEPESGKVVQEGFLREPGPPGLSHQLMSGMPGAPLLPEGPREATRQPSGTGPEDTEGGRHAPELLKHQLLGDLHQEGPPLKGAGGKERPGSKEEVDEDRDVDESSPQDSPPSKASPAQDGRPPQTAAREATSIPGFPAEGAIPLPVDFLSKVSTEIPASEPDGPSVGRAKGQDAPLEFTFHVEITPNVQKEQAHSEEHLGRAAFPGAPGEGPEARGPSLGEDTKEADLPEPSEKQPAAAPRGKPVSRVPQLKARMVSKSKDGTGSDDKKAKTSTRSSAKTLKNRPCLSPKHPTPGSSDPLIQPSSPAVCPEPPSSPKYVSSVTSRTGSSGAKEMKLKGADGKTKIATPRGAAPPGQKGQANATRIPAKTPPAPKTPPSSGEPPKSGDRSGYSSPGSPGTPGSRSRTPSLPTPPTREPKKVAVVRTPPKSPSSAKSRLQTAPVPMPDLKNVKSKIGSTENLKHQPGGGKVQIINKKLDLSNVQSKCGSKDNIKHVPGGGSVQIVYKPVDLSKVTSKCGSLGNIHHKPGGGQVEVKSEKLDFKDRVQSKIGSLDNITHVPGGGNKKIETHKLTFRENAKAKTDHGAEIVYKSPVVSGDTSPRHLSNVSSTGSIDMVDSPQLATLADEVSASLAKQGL

SMILES	Potency	activity, negative = inhibition
Cc1c(Br)c([N+](=O)[O-])nn1CCCC(=O)Nc1sc2c(c1C(N)=O)CCC(C)C2 (stereo not drawn)	inconclusive: 14.1 µM [inhibitor, partial curve]	–
Cc1ccccc1-n1c(CSC(=N)N)nc2ccccc2c1=O	inconclusive: 15.8 µM [inhibitor, partial curve]	–
COc1cc(-n2c(N)c(C(=O)NCc3ccco3)c3nc4ccccc4nc32)cc(OC)c1OC	inconclusive: 14.1 µM [inhibitor, partial curve]	–
CC1(C)CC(Nc2ccc(Nc3ccccc3)cc2)CC(C)(C)N1	inconclusive: 14.1 µM [inhibitor, partial curve]	–
CCn1c(N)c(C(=O)N2CCOCC2)sc1=S	–	inactive: -3.46%
N[C@H](CCC(=O)NCC(=O)O)C(=O)O	inactive	–
O=C(Cn1ncc2ccsc2c1=O)N1CCN(c2ccc(F)cc2)CC1	inconclusive: 15.8 µM [inhibitor, partial curve]	–
COc1ccc(CCNC(=O)CSc2cn(CCNC(=O)c3cccc(C(F)(F)F)c3)c3ccccc23)cc1OC	–	inactive: -23.7%
CC1CCN(S(=O)(=O)c2nnc(NC(=O)c3ccc(C(C)C)cc3)s2)CC1	active: 2.82 µM	–
O=C(c1cc(-c2cccc(Cl)c2)on1)N1CCN(c2ccccc2)CC1	inconclusive: 11.2 µM [inhibitor, partial curve]	–
O=c1c2cc(N3CCOCC3)ccc2[nH]c(=S)n1CCCN1CCCCC1	–	inactive: -9.55%
CCn1c(SCC(=O)NCc2cccs2)nnc1-c1cccs1	–	inactive: -0.256%
COc1ccc(-c2nnc(-c3cc4c(ccc5ccccc54)oc3=O)o2)cc1	inconclusive: 3.55 µM [inhibitor, partial curve]	–
O=C(O)c1cccc(-n2cnnn2)c1	–	inactive: -7.19%
CCCCC(=O)Nc1ccc(NC(=O)c2cnccn2)cn1	inconclusive: 25.1 µM [inhibitor, single point]	–
O=C(/C=C/c1ccc(Cl)c([N+](=O)[O-])c1)Nc1cccc(NC(=O)c2ccco2)c1	inconclusive: 7.94 µM [inhibitor, full curve]	–
CCc1nnc2c(Nc3cccc(F)c3)nc3ccc(C(=O)c4ccccc4)cc3n12	–	inactive: 3.17%
CCC(C)Cn1c(/C=C/c2ccccc2)nc2ccccc21 (stereo not drawn)	inconclusive: 28.2 µM [inhibitor, partial curve, poor fit]	–
O=C(Oc1ccc(OC(=O)c2ccco2)c(S(=O)(=O)c2ccc(Br)cc2)c1)c1ccco1	–	inactive: 1.05%
CC(C)OC(=O)C[C@H](NC(=O)OC(C)(C)C)c1ccccc1	–	inactive: -6.08% [at 11.5 µM]
COC(=O)C[C@H]1c2ccccc2[C@H]2C(=C[C@@H](C)[C@H]3C(=O)N(O)C(=O)[C@H]32)N1C(=O)OC	–	inactive: -3.93% [at 11.5 µM]
Cc1ccccc1C(=O)NC(=S)Nc1ccc(N2CCOCC2)cc1	inconclusive: 11.2 µM [inhibitor, partial curve]	–
CCCCOC(=O)/C=C/c1c(C)[nH]c(=O)[nH]c1=O	–	inactive: -3.09%
CCS(=O)(=O)c1ccc(O)c(Nc2cc(C)nc(SC)n2)c1	–	inactive: -15.8%
Cc1ccc(N/N=C2\CCS(=O)(=O)c3sccc32)cc1	inconclusive: 14.1 µM [inhibitor, partial curve]	–

SMILES	Potency	activity, negative = inhibition
CCC(=O)C1=C(c2ccc(Cl)cc2)N(C(=O)CC)n2c(C)nnc2S1	inconclusive: 17.8 µM [inhibitor, partial curve]	–
O=C(CSc1oc(-c2ccco2)nc1S(=O)(=O)c1ccc(Br)cc1)c1ccccc1	–	inactive: -14%
CCCCCCCCCCCC(=O)c1c(O)cccc1O	inconclusive: 1 µM [inhibitor, single point]	–
COc1ccc(C2CC(C(F)(F)F)n3ncc(C(=O)NCc4cccnc4)c3N2)cc1OC (stereo not drawn)	–	inactive: -12.9%
CO[C@@H]1/C=C\CC(=O)N[C@@H](C)C(=O)OC[C@@H](OC)[C@H](C)/C=C\CC(=O)OC[C@H]1C	–	inactive: -0.633% [at 11.5 µM]
O=c1c2c3nc4ccccc4nc3n(/N=C/c3ccco3)c2ncn1CCC1=CCCCC1	inconclusive: 14.1 µM [inhibitor, partial curve]	–
O=C(c1ccc(N2CCCCC2)c([N+](=O)[O-])c1)N1CCOCC1	–	inactive: -7.63%
COc1cccc(CNS(=O)(=O)c2cc3[nH]c(=O)c(=O)[nH]c3cc2C)c1	–	inactive: -13.9%
COc1ccc(C(=O)Nc2ccc3c(c2)OCCO3)cc1	–	inactive: -11.9%
O=C(Nc1cccc2nsnc12)c1ccc(-c2cccc(Cl)c2)o1	inconclusive: 7.08 µM [inhibitor, partial curve]	–
Cc1cc(SCC(=O)c2cc(C)n(C)c2C)nc2ccccc12	–	inactive: 12.1%
Cc1cc(C(F)(F)F)n2ncc(-c3ccccc3)c2n1	inconclusive: 25.1 µM [inhibitor, single point]	–
Fc1ccc2c(c1)C(c1ccc(N3CCOCC3)cc1)=NNC(c1cccs1)=N2	inconclusive: 20 µM [inhibitor, partial curve]	–
COc1cc(N2CCOCC2)ccc1C=C(C#N)C#N	–	inactive: -14.2%
Cc1ccc(Nc2ncc(C(=O)N3CCN(c4ccc(F)cc4)CC3)c3ccccc23)cc1Cl	–	inactive: -1.61%
CCCc1[nH]nc2c1C(c1ccc(O)cc1OCC)C(C#N)=C(N)O2 (stereo not drawn)	inconclusive: 31.6 µM [inhibitor, partial curve]	–
O=C(O)COc1ccccc1/C=C1\SC(=S)N(/N=C/c2ccccc2O)C1=O	inconclusive: 11.2 µM [inhibitor, partial curve, poor fit]	–
CC(=O)N1CCC(=NNc2ccnc3cc(Cl)ccc23)CC1	inconclusive: 28.2 µM [inhibitor, partial curve]	–
CCOc1ccccc1NC(=O)N(Cc1ccc(F)cc1)C1CCN(CC)CC1	–	inactive: 4.37%
Cc1cccnc1NC(=S)NC(=O)/C=C/c1ccco1	active: 28.2 µM	–
COC(=O)CSc1nc2cc(C)ccc2cc1C#N	inconclusive: 2.82 µM [inhibitor, full curve]	–
Cc1ccc(Nc2nc(Cl)c(C=O)s2)cc1	inconclusive: 17.8 µM [inhibitor, partial curve]	–
COc1ccc(NC(=O)c2c(NCc3ccc(N(C)C)cc3)sc3c2CCC3)cc1	active: 15.8 µM	–
O=C(Cn1nc(-c2ccccc2)c2ccccc2c1=O)Nc1ccc2c(c1)nc1n2CCOC1	inconclusive: 12.6 µM [inhibitor, partial curve]	–
Nc1ccc2c3c(cccc13)C(=O)N(c1ccccc1)C2=O	–	inactive: 9.03%

SMILES	Potency	activity, negative = inhibition
COC(=O)c1cc(C(=O)N2CCN(c3ccccc3OC)CC2)cc([N+](=O)[O-])c1	inconclusive: 3.16 µM [inhibitor, full curve]	–
COc1ccc2c(c1[N+](=O)[O-])CCC/C2=N/OC(=O)c1ccccc1SC	inconclusive: 12.6 µM [inhibitor, partial curve]	–
COC(=O)c1cc(OC)c(OC)cc1NC(=S)N1CCN(C/C=C/c2ccccc2)CC1	inconclusive: 22.4 µM [inhibitor, partial curve]	–
COC(=O)c1ccc(NC(=O)CN(CCc2ccccc2)S(=O)(=O)c2ccc(OC)cc2)cc1	–	inactive: -3.59%
Nc1ccc2nc(SCc3ccc([N+](=O)[O-])cc3)sc2c1	inconclusive: 7.94 µM [inhibitor, partial curve]	–
Cc1cccc2sc(NNC(=O)c3cc(=O)c4ccccc4o3)nc12	active: 6.31 µM	–
N#Cc1ccc(C(=O)NCc2ccc3c(c2)CCN3C(=O)c2ccc(F)cc2)cc1	–	inactive: 12.3%
COc1cc(C)c(-c2cc(C(=O)O)c(C)o2)cc1C(C)C	inconclusive: 22.4 µM [inhibitor, partial curve, poor fit]	–
Cc1ccccc1Cn1c2ccccc2c2cnn(CC(=O)NC(C)CCc3ccccc3)c(=O)c21 (stereo not drawn)	–	inactive: 11.6%
O=C(CN1CCN(c2nc(-c3ccccc3)cs2)CC1)NCc1ccc2c(c1)OCO2	inconclusive: 6.31 µM [inhibitor, partial curve]	–
CCOC(=O)N1CCN(c2ccc(C(=O)c3ccccc3)cc2F)CC1	inconclusive: 17.8 µM [inhibitor, partial curve, poor fit]	–
CC(=O)SC1CC2=CC(=O)CCC2(C)C2CCC3(C)C(CCC34CCC(=O)O4)C12 (stereo not drawn)	inconclusive: 44.7 µM [inhibitor, single point]	–
COc1ccc(Nc2nnc(SCC(=O)c3cc4ccccc4o3)s2)cc1	inconclusive: 20 µM [inhibitor, partial curve]	–
O=C(CSc1nnc(-c2ccccn2)n1Cc1ccco1)c1ccc(Cl)cc1	inconclusive: 28.2 µM [inhibitor, partial curve]	–
CCOC(=O)COc1ccc2c(C)cc(=O)oc2c1C(=O)c1ccccc1	–	inactive: -9.37%
COc1ccc2c(CNCc3cccs3)c(C(=O)O)n(Cc3ccc(C)cc3)c2c1	–	inactive: -10.6%
CCN1CCN(c2nc3ccccc3nc2C(C#N)C(=O)OCc2ccccc2)CC1 (stereo not drawn)	inconclusive: 25.1 µM [inhibitor, partial curve]	–
COc1cc2c(C#N)c(N3CCc4ccccc4C3)nc(N)c2c(N)n1	inconclusive: 20 µM [inhibitor, partial curve]	–
CSC1=N/C(=C/c2cccnc2)C(=O)N1Cc1ccccc1	inconclusive: 17.8 µM [inhibitor, partial curve]	–
N#Cc1nc(COc2ccccc2Cl)oc1N1CCCCCC1	–	inactive: -6.96%
Cc1nn(C)cc1-c1n[nH]c(=S)n1-c1ccc(F)cc1	–	inactive: 16.2%
O=C(/C=C/c1ccco1)Nc1ccc2c(c1)OCCO2	inconclusive: 11.2 µM [inhibitor, partial curve]	–
CCC1=NN(C(=O)COc2ccccc2)C(O)(c2ccc(Br)cc2)C1 (stereo not drawn)	inconclusive: 0.1 µM [activator, full curve, poor fit]	–
